The other results are listed elsewhere or left out.
What follows are sequences tested against T1, OsWOX13 (Oryza sativa, UniProt Q5QMM3 1-267) (assay: protein-binding microarray (RPBM); PBS, 2% BSA, 51.3 ng/ul salmon testes DNA, 50 uM zinc acetate, 200 nM TF, 25 C, 1 h; high values mean tight binding). Conditions: protein: recombinant; tags: N-terminal polyhistidine and DsRed monomer fusion (pET32a); label: CyDye5-dUTP incorporated in the synthesized complementary strand; 3' TTTTT single-stranded linker to array surface; dsDNA, one strand shown.
T1 sequence: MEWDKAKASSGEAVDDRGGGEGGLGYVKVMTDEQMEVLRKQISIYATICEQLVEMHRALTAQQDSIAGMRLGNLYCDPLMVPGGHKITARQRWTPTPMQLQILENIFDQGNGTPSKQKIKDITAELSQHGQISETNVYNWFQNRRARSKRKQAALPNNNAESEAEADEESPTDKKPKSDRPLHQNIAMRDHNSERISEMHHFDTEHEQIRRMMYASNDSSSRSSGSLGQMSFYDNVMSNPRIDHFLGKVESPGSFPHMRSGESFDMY
How it was run: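 Transcription factors were made in E. coli BL21-CodonPlus as N-terminal fusions to a polyhistidine tag and DsRed, then purified on Ni–NTA. After primer extension with Cy5-dUTP and blocking with 2% BSA, a custom Agilent array was exposed for 1 h at 25 °C to 200 nM protein in PBS, 2% BSA, salmon testes DNA and 50 µM zinc acetate. Washed arrays were scanned on an Axon 4000B, and the binding signal is per-feature fluorescence intensity in arbitrary units.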

| Sequence | binding signal |
| --- | --- |
| AACTGATTAAGTAGAATACCTTGACTAGGATGCTGATATTCGGAGTCACCTAGTGCAG | 8580 fluorescence intensity (a.u.) |
| CAGTTTCAATCAATCAAGTGGTTGGCAGAGGAATTTAAGCCGGAGTCACCTAGTGCAG | 42900 fluorescence intensity (a.u.) |
| TGGACCCGATTGATAGGAAACGATAGGCAAATAAACATAACGGAGTCACCTAGTGCAG | 6110 fluorescence intensity (a.u.) |
| TCTCTTGATAAGTATAATTATTTTCTAGTTAATCACACTACGGAGTCACCTAGTGCAG | 13500 fluorescence intensity (a.u.) |
| TTGTAATAATTAAAGCTTAATTAATTACTCTCTCCATTCTCGGAGTCACCTAGTGCAG | 18000 fluorescence intensity (a.u.) |
| CTCATTAATCTTGCTCATTAATCTTGCAATTAATCCAGAACGGAGTCACCTAGTGCAG | 4900 fluorescence intensity (a.u.) |
| TGTTTAATGATTTGGGAAGCATGTATGAAGCTACAGGAAGCGGAGTCACCTAGTGCAG | 14700 fluorescence intensity (a.u.) |
| TTTAATTTTGTGGTTCTTGTCAATGTAACACAACAGTAAGCGGAGTCACCTAGTGCAG | 3320 fluorescence intensity (a.u.) |
| CAGTATAGACAGAACCTTAATGGAAAAGGAATCTAGACAGCGGAGTCACCTAGTGCAG | 12400 fluorescence intensity (a.u.) |
| ATTAACTGAACTAACAACCCCGCTACTCATACGATCCCGCCGGAGTCACCTAGTGCAG | 14000 fluorescence intensity (a.u.) |
| AGAATCTCAATCAGTTACTAATTGTGGAGATTGTATTAGGCGGAGTCACCTAGTGCAG | 24600 fluorescence intensity (a.u.) |
| GGCTGACTGCAGTTCTGCCGTAAGTAAAATGGTGATCAAACGGAGTCACCTAGTGCAG | 3610 fluorescence intensity (a.u.) |
| GCTGATTTTGACAATAAGTGAATAAGGTTTTAATTTCTCGCGGAGTCACCTAGTGCAG | 22500 fluorescence intensity (a.u.) |
| GAAGAGCCAATCTTATAGCTAATTTATTATATATGTTGGCCGGAGTCACCTAGTGCAG | 6300 fluorescence intensity (a.u.) |
| TTTATATTGATGTAACCGATTCAAACACTTACGACATGGGCGGAGTCACCTAGTGCAG | 11400 fluorescence intensity (a.u.) |
| CCTCATGATTTACCCTAATAGCGATCATAGTGCTTCACTTCGGAGTCACCTAGTGCAG | 16900 fluorescence intensity (a.u.) |
| ACAAAATTTATATACGCTTATACAAACTTTGTGTATGTGTCGGAGTCACCTAGTGCAG | 4170 fluorescence intensity (a.u.) |
| CCAACAAATTGGACCTTAATGAAGCTCCACTTGTGACAACCGGAGTCACCTAGTGCAG | 30300 fluorescence intensity (a.u.) |
| AATAATTAAAACTCAATTAATCACAAGTTATTACCACCTCCGGAGTCACCTAGTGCAG | 30800 fluorescence intensity (a.u.) |
| TACAATTGAATAATCACCAATTCACCATCAAGAAAATCAGCGGAGTCACCTAGTGCAG | 19800 fluorescence intensity (a.u.) |
| GCATTATTCGTCTATCCATTTTCTCCCATGCTAAATCCAACGGAGTCACCTAGTGCAG | 3240 fluorescence intensity (a.u.) |

| Sequence | binding signal |
| --- | --- |
| CAAGTTTAGATGACTGATAGATAAGAAAAGCCAGGCAACTCGGAGTCACCTAGTGCAG | 9830 fluorescence intensity (a.u.) |
| TCCATAATTATATTTCAATTATATATACTTGCACAAAATTCGGAGTCACCTAGTGCAG | 20400 fluorescence intensity (a.u.) |
| TTTCCAGATGGATTGCAAACTGTATTGACTATTGAGCAAGCGGAGTCACCTAGTGCAG | 4090 fluorescence intensity (a.u.) |
| TAATTTAATAGCCAATTCATACAATTGCCTATTATCTGGTCGGAGTCACCTAGTGCAG | 5900 fluorescence intensity (a.u.) |
| CCCCGAGACATCGTGCCGGTGATTGCTCGTGATGTGCAATCGGAGTCACCTAGTGCAG | 5800 fluorescence intensity (a.u.) |
| GGAGATTGTTGAATGGTTCCATATTGGTTGTAGAAGGACTCGGAGTCACCTAGTGCAG | 4100 fluorescence intensity (a.u.) |
| CTCTATTTAAAATTTTCTTTCACCCATGAGTTCTTATATTCGGAGTCACCTAGTGCAG | 3310 fluorescence intensity (a.u.) |
| CGTATTGATAGTGTGTGAGAGACTGGGTTTGGTGTTTCATCGGAGTCACCTAGTGCAG | 3440 fluorescence intensity (a.u.) |
| TGGGGAGGGGAGGGAGAGGTGTCGTCAACAGGGAGGGAGGCGGAGTCACCTAGTGCAG | 3570 fluorescence intensity (a.u.) |
| TTAATTTGCATGTTTGTGGATTGATATATTACATATTGATCGGAGTCACCTAGTGCAG | 19500 fluorescence intensity (a.u.) |
| AATGTGAGCATGTGATTTAAATTTGAGAAAATTCAACTTGCGGAGTCACCTAGTGCAG | 3660 fluorescence intensity (a.u.) |
| TGGATGAAAATTTTCCTATAATTATTCCTCTACAACTTATCGGAGTCACCTAGTGCAG | 8310 fluorescence intensity (a.u.) |
| GGGTGTTGATAGCACAGATGATTGGATTAATTCCTTGCCTCGGAGTCACCTAGTGCAG | 32500 fluorescence intensity (a.u.) |
| ATATAATTGTCACAAACGAAAGATGAGGGAGGGCAAATAGCGGAGTCACCTAGTGCAG | 13900 fluorescence intensity (a.u.) |
| TATAATTATAGTATTTAGAAAATAAATTAAAAGCTAGATCCGGAGTCACCTAGTGCAG | 17800 fluorescence intensity (a.u.) |
| AACGAGATTTGATGAAATTTACTCGACACAAAACAACTCTCGGAGTCACCTAGTGCAG | 10500 fluorescence intensity (a.u.) |
| TGTTGATGAGTTATACAACTTTGTTGTTGATGACATTTTCCGGAGTCACCTAGTGCAG | 6330 fluorescence intensity (a.u.) |
| ATTAACCAGCACTCAAATTATTCCTTTGTTTAGTTGTCTGCGGAGTCACCTAGTGCAG | 3450 fluorescence intensity (a.u.) |
| TCCTCTCTTAATTAATTATTAGCTCGTGTTAATTGTTAAACGGAGTCACCTAGTGCAG | 32800 fluorescence intensity (a.u.) |
| GAAATTGATAACATGATTTGTGAAAGGAAAATAAAGCGAACGGAGTCACCTAGTGCAG | 47000 fluorescence intensity (a.u.) |
| GCTATAATTTATAATGTTTGGTTGCACGTTCTGTACATGGCGGAGTCACCTAGTGCAG | 28900 fluorescence intensity (a.u.) |

Source: PMC7819943, “Rice protein-binding microarrays: a tool to detect cis-acting elements near promoter regions in rice”
